According to PubChem BioAssay (NCATS):
The list shows a part of the results. These are further read-outs of the screen, such as a control signal, another cell line or another target. No call is given for them. Compounds called inactive in the main read-out are mostly missing here. Words in brackets tell the shape of the fitted curve; partial curves, single points and poor fits give uncertain potencies.

Assays:
[1] = target: Catechol O-methyltransferase (Homo sapiens) (UniProt P21964); assay: Confirmatory Screen for Target Class Profiling of Small Molecule Inhibitors of Methyltransferases (AID 1745852); conditions: MTase-Glo luminescence, SAH detection, recombinant enzyme; measured here: COMT inhibition potency;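 further: inhibitor potency for blocking SAH production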
[2] = S16 Schwann cell PMP22 intronic element beta-lactamase assay (AID 624044); conditions: S16 rat Schwann cells, PMP22 element beta-lactamase FRET, 24 h; further: nearly all actives have a fitted effect of over 15% in size
Summary of the method: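 Beta-lactamase reporter under a PMP22 intronic regulatory element in stable S16 rat Schwann cells; 24 h compound exposure. 460 nm blue signal normalized between DMSO (0%) and potassium clavulanate, with 535 nm FRET tracking viability; curves classed by r2 and response.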

[3] = A High-Content qHTS Against Drug Library for the Identification of Small Molecules that Inhibit DYT1 Early Onset Primary Dystonia-Associated Cell Pathology (AID 1645839); conditions: HEK293 Flp-In EGFP-delE TorsinA, punctate imaging, 48 h; measured here: cell count cytotoxicity
Summary of the method: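 High-content imaging quantified EGFP-TorsinA mislocalization in HEK293-derived cells inducibly expressing DYT1 mutant torsinA, after 48 h exposure to compound given together with tetracycline induction. Cell count served as a toxicity channel alongside %pathology.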

[4] = target: Histamine N-methyltransferase (Homo sapiens) (UniProt P50135); assay: Confirmatory Screen for Target Class Profiling of Small Molecule Inhibitors of Methyltransferases (AID 1745852); conditions: MTase-Glo luminescence, SAH detection, recombinant enzyme; measured here: HNMT inhibition potency;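 further: inhibitor potency for blocking SAH production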
[5] = target: Nicotinamide N-methyltransferase (Homo sapiens) (UniProt P40261); assay: as above; conditions: MTase-Glo luminescence, SAH detection, recombinant enzyme; measured here: NNMT inhibition potency
[6] = target: Phenylethanolamine N-methyltransferase (Homo sapiens) (UniProt P11086); assay: as above; conditions: MTase-Glo luminescence, SAH detection, recombinant enzyme; measured here: PNMT inhibition potency
[7] = measured here: 460 nm blue channel
[8] = measured here: 530 nm viability channel
Tags describe the fitted curve by direction and shape.

Chain of UniProt P21964 (P21964 whole entry, looked up): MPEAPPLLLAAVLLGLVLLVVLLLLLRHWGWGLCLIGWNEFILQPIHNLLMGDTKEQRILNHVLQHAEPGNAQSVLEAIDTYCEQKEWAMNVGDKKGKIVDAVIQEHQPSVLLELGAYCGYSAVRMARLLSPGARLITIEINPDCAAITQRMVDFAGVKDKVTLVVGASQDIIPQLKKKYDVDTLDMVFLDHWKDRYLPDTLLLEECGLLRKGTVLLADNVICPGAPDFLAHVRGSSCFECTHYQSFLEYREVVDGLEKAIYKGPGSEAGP
Chain of UniProt P40261 (P40261 whole entry, looked up): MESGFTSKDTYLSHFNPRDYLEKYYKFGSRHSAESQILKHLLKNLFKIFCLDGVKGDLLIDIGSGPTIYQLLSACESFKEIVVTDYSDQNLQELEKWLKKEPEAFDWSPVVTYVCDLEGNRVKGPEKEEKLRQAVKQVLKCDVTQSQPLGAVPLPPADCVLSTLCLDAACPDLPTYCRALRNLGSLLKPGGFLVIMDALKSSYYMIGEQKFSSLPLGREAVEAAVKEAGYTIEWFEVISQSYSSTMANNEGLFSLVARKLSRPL
Chain of UniProt P50135 (P50135 whole entry, looked up): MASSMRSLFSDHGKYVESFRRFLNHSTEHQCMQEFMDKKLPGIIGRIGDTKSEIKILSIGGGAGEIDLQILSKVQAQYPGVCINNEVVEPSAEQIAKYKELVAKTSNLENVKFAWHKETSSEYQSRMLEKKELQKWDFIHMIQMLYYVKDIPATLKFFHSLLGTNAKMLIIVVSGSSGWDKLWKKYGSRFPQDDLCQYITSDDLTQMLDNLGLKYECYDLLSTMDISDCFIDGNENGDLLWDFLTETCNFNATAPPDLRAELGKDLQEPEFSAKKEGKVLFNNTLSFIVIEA
Chain of UniProt P11086 (P11086 whole entry, looked up): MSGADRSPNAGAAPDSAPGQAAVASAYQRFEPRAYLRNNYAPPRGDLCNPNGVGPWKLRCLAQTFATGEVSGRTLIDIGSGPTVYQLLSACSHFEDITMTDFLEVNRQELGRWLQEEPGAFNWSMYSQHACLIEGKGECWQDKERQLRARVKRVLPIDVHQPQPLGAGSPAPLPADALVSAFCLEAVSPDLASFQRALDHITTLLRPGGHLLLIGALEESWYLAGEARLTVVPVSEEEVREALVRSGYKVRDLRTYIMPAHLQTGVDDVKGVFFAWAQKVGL

Question: Which IC50 [1] does the source give for `CC(C)(O)C1CC=C(C(=O)OC[C@H]2O[C@@H](OC(=O)C3=CCC(C(C)(C)O)CC3)[C@H](O)[C@@H](O)[C@@H]2O)CC1` (some centres undefined) here?
Answer: 8.35 µM [falling, partial curve]

Question: For `CCCN(CCc1cccs1)[C@H]1CCc2c(O)cccc2C1`, which AC50 [2, 7] is on record?
Answer: 8.91 µM [falling, full curve]

Question: And the AC50 [3]?
Answer: 1.78 µM [falling, full curve]

Question: For `CCCCCCCCOc1ccc(C(=O)c2ccccc2)c(O)c1`, which AC50 [2, 7] is on record?
Answer: 7.07 µM [falling, full curve]

Question: What about the AC50 [2, 8] of the same compound?
Answer: 1.41 µM [falling, full curve, poor fit]

Question: And the AC50 [3]?
Answer: 17.8 µM [rising, single point]

Question: Which IC50 [1] does the source give for `C/C=C(/C)C(=O)O[C@H]1C=C(CO)C(=O)[C@H](OC(=O)/C(C)=C/CO)[C@H]1C(C)C` here?
Answer: 11.9 µM [falling, partial curve]

Question: For `CC(=O)OC[C@H]1O[C@@](COC(C)=O)(O[C@H]2O[C@H](COC(C)=O)[C@@H](OC(C)=O)[C@H](OC(C)=O)[C@H]2OC(C)=O)[C@@H](OC(C)=O)[C@@H]1OC(C)=O`, which AC50 [2, 7] is on record?
Answer: 1.58 µM [falling, full curve, poor fit]

Question: What about the AC50 [3] of the same compound?
Answer: 10 µM [falling, partial curve, poor fit]

Question: For `COc1cc(C(O)C(CO)Oc2ccc(CCCO[C@@H]3O[C@@H](C)[C@H](O)[C@@H](O)[C@H]3O)cc2OC)ccc1O` (some centres undefined), which IC50 [1] is on record?
Answer: 6.63 µM [falling, partial curve]

Question: Which AC50 [2, 7] does the source give for `Cc1ccc2c(Br)cc(Br)c(O)c2n1` here?
Answer: 15.8 µM [falling, partial curve]

Question: And the AC50 [2, 8]?
Answer: 20 µM [rising, partial curve]

Question: And the AC50 [3]?
Answer: 2.82 µM [falling, full curve]

Question: For `CNCCc1ccccn1`, which AC50 [2, 7] is on record?
Answer: 0.755 µM [falling, full curve, poor fit]

Question: And the AC50 [3]?
Answer: 11.2 µM [falling, partial curve, poor fit]

Question: With `COc1c(O)cc2c(c1O)C(=O)O[C@H](C)[C@H]2O` as the compound, how does the IC50 [1] read?
Answer: 21.5 µM [falling, partial curve]

Question: With `CCN(CC)C(=O)/C(C#N)=C/c1cc(O)c(O)c([N+](=O)[O-])c1` as the compound, how does the AC50 [2, 7] read?
Answer: 22.4 µM [rising, partial curve, poor fit]

Question: And the AC50 [3]?
Answer: 10 µM [falling, partial curve, poor fit]

Question: For `C=C1C(=O)OC2CC3(C)C(CC12)C(C)=CC(O)C3OC(C)=O` (centres undefined), which IC50 [1] is on record?
Answer: 9.42 µM [falling, partial curve]

Question: For `C=C1C(=O)OC2C1CCC1(C)C(O)CC=C(C)C21` (centres undefined), which IC50 [1] is on record?
Answer: 10.8 µM [falling, full curve]

Question: With `CCCCCCCCCCCCCCCC[N+](C)(C)CC` as the compound, how does the AC50 [2, 7] read?
Answer: 17.8 µM [falling, partial curve]

Question: What about the AC50 [3] of the same compound?
Answer: 10 µM [falling, partial curve, poor fit]

Question: What does the source list for `O=c1c(-c2ccccc2)c1-c1ccccc1`?
Answer: AC50 [2, 7]: 25.1 µM [falling, partial curve]; AC50 [2, 8]: 0.00316 µM [falling, full curve]; AC50 [3]: 35.5 µM [falling, single point]

Question: Which IC50 [1] does the source give for `C=C1C(=O)O[C@@H]2C3=C(C)CCC[C@]3(C)CC[C@@]12O` here?
Answer: 3.41 µM [falling, full curve]

Question: For `O=C(O)CC1(O)C(=O)Nc2ccccc21` (centres undefined), which IC50 [1] is on record?
Answer: 11.1 µM [falling, partial curve]

Question: Which IC50 [1] does the source give for `COc1cc(/C=C/c2cc(O)cc(O[C@@H]3O[C@H](CO)[C@@H](O)[C@H](O)[C@H]3O)c2)ccc1O` here?
Answer: 10.5 µM [falling, partial curve]

Question: For `C=C1C(=O)OC2/C=C(\CO)CC/C=C(\C=O)C(OC)C(OC(=O)C(C)CC)C12` (centres undefined), which IC50 [1] is on record?
Answer: 0.527 µM [falling, full curve]

Question: Which IC50 [1] does the source give for `CC1OC(OC2C(OC(=O)[C@]34CCC(C)(C)C[C@H]3C3=CCC5[C@@]6(C)CC[C@H](OC7OC(C(=O)O)C(O)C(O)C7O)C(C)(C)C6CC[C@@]5(C)[C@]3(C)CC4O)OC(CO)C2O)C(O)C(O)C1OC1OCC(O)C(O)C1O` (some centres undefined) here?
Answer: 0.408 µM [falling, full curve]

Question: For `CN(C(=O)CN(CCO)CC(=O)N(C)C(C)(C)Cc1ccccc1)C(C)(C)Cc1ccccc1`, which AC50 [2, 7] is on record?
Answer: 2.39 µM [rising, full curve, poor fit]

Question: And the AC50 [3]?
Answer: 10 µM [falling, partial curve, poor fit]

Question: Which AC50 [2, 7] does the source give for `CCN1/C(=C/C=C/c2sc3ccccc3[n+]2CC)Sc2ccccc21` here?
Answer: 9.99 µM [falling, partial curve]

Question: What about the AC50 [2, 8] of the same compound?
Answer: 0.355 µM [falling, partial curve]

Question: What about the AC50 [3] of the same compound?
Answer: 0.282 µM [falling, full curve, poor fit]

Question: With `CN1CCC(Nc2ncc3ncnc(Nc4ccc(F)c(Cl)c4)c3n2)CC1` as the compound, how does the AC50 [2, 7] read?
Answer: 17.8 µM [rising, partial curve]

Question: What about the AC50 [2, 8] of the same compound?
Answer: 14.1 µM [rising, partial curve]

Question: What about the AC50 [3] of the same compound?
Answer: 2.24 µM [falling, partial curve, poor fit]

Question: Which IC50 [1] does the source give for `C=C(C)C(=O)OC1CC2(C)OC(=CC2=O)C(=C)CC2OC(=O)C(COC)C12` (centres undefined) here?
Answer: 0.53 µM [falling, full curve]

Question: With `CC1(C)CC[C@]2(C(=O)O[C@@H]3O[C@H](CO)[C@@H](O)[C@H](O)[C@H]3O)CC[C@]3(C)C(=CCC4[C@@]5(C)C[C@@H](O)[C@H](O)[C@@](C)(CO)C5[C@H](O)C[C@]43C)C2[C@@H]1O` (some centres undefined) as the compound, how does the IC50 [1] read?
Answer: 1.01 µM [falling, full curve]

Question: For `O=C(/C=C/c1ccc(O)cc1)OC[C@@]1(O)C=C[C@@H]2C(C(=O)O)=CO[C@@H](O[C@@H]3O[C@H](CO)[C@@H](O)[C@H](O)[C@H]3O)[C@@H]21`, which IC50 [1] is on record?
Answer: 4.7 µM [falling, partial curve]

Question: With `COC(=O)C1=CO[C@@H](O[C@@H]2O[C@H](CO[C@@H]3O[C@H](COC(=O)/C=C/c4cc(OC)c(O)c(OC)c4)[C@@H](O)[C@H](O)[C@H]3O)[C@@H](O)[C@H](O)[C@H]2O)[C@@H]2C(CO)=CC[C@H]12` as the compound, how does the IC50 [1] read?
Answer: 1.6 µM [falling, full curve]

Question: With `CCCCCCCCCCCCCC[N+](C)(C)C` as the compound, how does the AC50 [2, 7] read?
Answer: 22.4 µM [falling, partial curve]

Question: What about the AC50 [3] of the same compound?
Answer: 7.08 µM [falling, full curve, poor fit]

Question: With `CC(C)N=C(N)/N=C(\N)Nc1ccc(Cl)cc1` as the compound, how does the AC50 [2, 7] read?
Answer: 2.39 µM [falling, partial curve, poor fit]

Question: And the AC50 [3]?
Answer: 35.5 µM [falling, partial curve, poor fit]

Question: Which IC50 [1] does the source give for `O=C(O)CC(CCc1ccccc1)OC1OC(CO)C(O)C(O)C1O` (centres undefined) here?
Answer: 0.334 µM [falling, full curve]

Question: Which results are given for `CCCCCCCCCCCCOCCOCCOCCOCCOCCOCCOCCOCCOCCO`?
Answer: AC50 [2, 7]: 17.8 µM [falling, partial curve, poor fit]; AC50 [3]: 15.8 µM [falling, single point]

Question: Which AC50 [2, 8] does the source give for `O=C(O)COc1nn(Cc2ccccc2)c2ccccc12` here?
Answer: 2 µM [falling, full curve]

Question: What about the AC50 [3] of the same compound?
Answer: 35.5 µM [falling, single point]

Question: Which IC50 [1] does the source give for `CC(C)(O)C1CC=C(C(=O)OCC2OC(Oc3c(O)cc(C(=O)O)cc3O)C(O)C(O)C2O)CC1` (centres undefined) here?
Answer: 0.663 µM [falling, full curve]

Question: For `COc1cc(C2Oc3c(OC)cc(CCCO)cc3C2CO)ccc1O` (centres undefined), which IC50 [1] is on record?
Answer: 2.11 µM [falling, full curve]

Question: For `COc1ccc(CCN2CCC(Nc3nc4ccccc4n3Cc3ccc(F)cc3)CC2)cc1`, which AC50 [2, 7] is on record?
Answer: 25.1 µM [falling, single point]

Question: What about the AC50 [3] of the same compound?
Answer: 3.55 µM [falling, partial curve, poor fit]

Question: Which results are given for `[O-][n+]1ccccc1SSc1cccc[n+]1[O-]`?
Answer: AC50 [2, 7]: 0.999 µM [falling, full curve]; AC50 [2, 8]: 1.12 µM [rising, full curve]; AC50 [3]: 1.12 µM [falling, partial curve, poor fit]

Question: With `CCCCN(CCCC)CC(O)c1cc(Cl)cc2c1-c1ccc(Cl)cc1/C2=C/c1ccc(Cl)cc1` (centres undefined) as the compound, how does the AC50 [2, 7] read?
Answer: 5.01 µM [falling, full curve]

Question: What about the AC50 [2, 8] of the same compound?
Answer: 2.51 µM [falling, full curve, poor fit]

Question: And the AC50 [3]?
Answer: 2.51 µM [falling, full curve, poor fit]

Question: With `C=C1C(=O)OC2C(OC(=O)C=C(C)C)C(C)=C3C(=O)C=C(C)C3C(O)C12` (centres undefined) as the compound, how does the IC50 [1] read?
Answer: 10.6 µM [falling, partial curve]

Question: Which AC50 [2, 7] does the source give for `CCCCCCCC/C=C\CCCCCCCC(=O)NCc1ccc(O)c(OC)c1` here?
Answer: 15.8 µM [falling, partial curve]

Question: What about the AC50 [2, 8] of the same compound?
Answer: 12.6 µM [rising, full curve]

Question: What about the AC50 [3] of the same compound?
Answer: 7.08 µM [falling, partial curve, poor fit]

Question: With `COC(=O)C1=CO[C@@H](O[C@@H]2O[C@H](COC(=O)/C=C/c3cc(OC)c(O)c(OC)c3)[C@@H](O)[C@H](O)[C@H]2O)[C@@H]2C(CO)=CC[C@H]12` as the compound, how does the IC50 [1] read?
Answer: 3.2 µM [falling, full curve]

Question: For `C[C@@H]1O[C@@H](OC[C@H]2O[C@@H](OCc3ccccc3)[C@H](O)[C@@H](O)[C@@H]2O)[C@H](O)[C@H](O)[C@H]1O`, which IC50 [1] is on record?
Answer: 7.44 µM [falling, partial curve]

Question: Which IC50 [1] does the source give for `Cc1oc(C(=O)O)cc1COc1ccc2c(-c3ccccc3)cc(=O)oc2c1C` here?
Answer: 34.1 µM [falling, partial curve]

Question: And the IC50 [4]?
Answer: 30.4 µM [falling, single point]

Question: What about the IC50 [5] of the same compound?
Answer: 24.1 µM [falling, partial curve]

Question: With `COCCCNC(=O)c1cnc2n[nH]c(-c3ccccc3)c2n1` as the compound, how does the IC50 [1] read?
Answer: 35 µM [falling, partial curve]

Question: What about the IC50 [4] of the same compound?
Answer: 35 µM [falling, partial curve]

Question: And the IC50 [5]?
Answer: 35 µM [falling, partial curve]

Question: And the IC50 [6]?
Answer: 31.2 µM [falling, partial curve]
